# ChEMBL document CHEMBL4888484, “Replenishing the malaria drug discovery pipeline: Screening and hit evaluation of the MMV Hit Generation Library 1 (HGL1) against asexual blood stage Plasmodium falciparum ,using a nano luciferase reporter read-out” (2022)
# About 540 (0.36%) of roughly 150,000 compounds showed an effect of 50% or more. This is one part of the list.
# Tested on: Plasmodium falciparum
# Assay: Primary screen in NF54 nanoGlo assay, in single point, at 2uM, 72h; a lower Z score goes with more inhibition
# Assay type: functional, Erythrocyte
# Conditions: timepoint 72 hour
Structure (SMILES),% Inhibition [%],Z score
CC(CCS(C)(=O)=O)NC(C)c1cc2ccccc2s1 (centres undefined),6,-1.21
CN(C(=O)OC(C)(C)C)C1CCN(C(=O)NC2CCOCC2)CC1,-8,1.1
CCc1c(C)nn(CC(=O)N(C)[C@@H](C)c2nc(C)sc2C)c1C,2,-0.36
COC(=O)C[C@H](NC(=O)c1cc(OC)ns1)c1ccncc1,5,-0.6
Cc1c(C#N)c2nc3c(c(-c4ccccc4)c2n1-c1ccccc1)CCCC3,-16,3.01
COC(=O)Nc1ccc(NCc2c[nH]nc2-c2cccnc2)cc1F,-2,0.25
Cc1ccc(-c2nc3ccc(-c4cc5ccccc5s4)cn3c2CCC(=O)N2CCOCC2)cc1,-18,2.17
CN1c2cc(Cl)ccc2C(=O)NC12CCN(C(=O)Nc1ccc3c(c1)OCCO3)CC2,-8,1.05
Cc1nc(CNS(=O)(=O)Cc2cc(Cl)ccc2F)no1,-1,0.16
Cc1nc(-c2ccc3c(c2)n(CC(=O)NCc2ccc4c(c2)OCO4)c(=O)n3C(C)C)no1,-1,0.15
CC(C)CCn1nnnc1[C@]1(N(C)C)CCCN(C(=O)CN2CCOCC2)C1,2,-0.27
CC1CN(C(=O)c2ccc3ncn(C)c3n2)C(C)CN1C (centres undefined),2,-0.28
CC(C)(CCO)CNC[C@@H]1CC=CCC1,2,-0.4
COc1cccc(-c2cnc(C(F)(F)F)nc2C2CCN(C(=O)CCn3ccc(C)n3)CC2)c1,8,-1.06
CNc1snc(C)c1C(=O)N1CCN(c2cccc(OC)c2)CC1,8,-1.51
CCn1ccc2cc(S(=O)(=O)N3CCC[C@H](C(=O)NCc4cccc(F)c4)C3)ccc21,1,-0.16
CC(=O)N1CCN(C(=O)CCc2c(C)nn(C)c2C)CC1,4,-0.55
O=S(=O)(NCc1cccnc1)c1ccc2c(c1)-c1oncc1CO2,2,-0.28
CC(C)n1cc(Br)cc1C(=O)N(C)S(=O)(=O)C(C)C,0,-0.01
COC(=O)[C@H](CCOc1cccc(C#N)c1)NC(=O)OC(C)(C)C,6,-1.2
O=C(c1ccc(=O)n(Cc2ccc(Cl)cc2)c1)N1CCc2ccccc21,-12,1.44
Cc1ccc(S(=O)(=O)Nc2ccc(C)n(CC(=O)NC3CCCC3)c2=O)cc1,-16,2.13
COc1ccccc1[C@H]1CN(Cc2ncc(C)c(OC)c2C)C[C@@H]1C(=O)O,-12,1.66
Cn1cc2ccc(CNC(=O)c3ccc4c(c3)CCCC(=O)N4)cc2n1,-12,1.59
Cc1csc(CNC(=O)c2cc(C)c(C)s2)n1,-6,0.99
COc1ccc(C2CC(C)CN2S(=O)(=O)CC2(C#N)CC2)cc1 (centres undefined),5,-0.66

Structure (SMILES),% Inhibition [%],Z score
O=C(c1cccc2c1NCCC2)N1CCn2nc([C@@H](O)C3CC3)cc2C1,-2,0.23
CCc1nnc(CN(C)C2CCN(c3cccc(-c4ccnc(C)n4)c3)CC2)o1,-14,2.06
CCCN(CC#N)C(=O)[C@@H]1CCCCN1C(C)=O,-9,1.53
C[C@H](Nc1ncccc1C#N)c1nnc(C(F)(F)F)[nH]1,-13,2.33
COc1ccc(OC)c2c1cc(C(=O)NCc1ccco1)n2C,3,-0.43
O=C1CN(C(=O)c2nn(CCCc3ccccc3)c3c2CN(Cc2c(F)cccc2F)CC3)CCN1,1,-0.16
CCCN1CCN(S(=O)(=O)c2cccc3nonc23)CC1,33,-0.42
CN1C(=O)[C@H](CC(=O)NCCCn2nccc2C2CC2)N(C)C1=O,-5,0.94
CC(C)c1ccn(C2(C(=O)O)CCN(C(=O)c3cccc(F)c3)CC2)n1,-8,1.4
CC(C)(C)NCCNC(=O)C(=O)Nc1cc(F)c(F)c(F)c1,-39,4.52
Cc1cc(-c2c(C)sc(C)c2S(=O)(=O)N2CCN(c3ccc(Cl)cc3)CC2)[nH]n1,-12,1.44
O=C1OCCN1Cc1nc(-c2cccc(CN3CCCCC3)c2)no1,-10,1.28
N[C@H]1CN(c2ccnc3c(C(F)(F)F)cccc23)C[C@@H]1C1CC1,-14,1.34
O=C(c1c[nH]nc1-c1ccccc1)N1CC(F)(F)C[C@H]1COc1ccccc1,-8,1.41
COc1ccnc(N(CCO)C(C)C)n1,5,-0.78
COc1ccc(-c2csc(N3N=C(C(C)C)C[C@]3(O)C(F)(F)F)n2)cc1,-33,3.89
COCOc1ccc(NC(=O)c2cc(-c3ccccc3C)nc3c2cnn3C(C)C)cc1,8,-1.13
O=S(=O)(N1CCCC1)N1CCC(n2cc(C3CCCC3)nn2)CC1,-15,2.29
CCCOc1c(Cl)cc(CN2CCCC3(C2)OCCO3)cc1OCC,-13,1.6
N#Cc1ccc(C(=O)N2C[C@@H]3C[C@H](C2)c2c(-c4ccc(OC(F)(F)F)cc4)ccc(=O)n2C3)cc1,-5,0.7
CCC(=O)N1CCN(C(=O)c2ccnc(OC)c2)[C@H]2CS(=O)(=O)C[C@H]21,-12,1.67
CC[C@@H](C(=O)NCc1ccccn1)n1c(Cc2c(Cl)cccc2Cl)nc2ccccc21,-7,1.02
COc1c[nH]c(C(=O)NCc2cccnc2N(C)C2CCCCC2)cc1=O,-9,1.71
COc1ccc2[nH]c([C@H]3CCN(CC4CC4)C3)nc2c1,28,-3.21
O=C(CCN1CCCC1=O)N[C@H]1CN(Cc2ccccn2)C[C@@H]1C1CC1,-6,1.03
COc1ccc(S(=O)(=O)NC(=N)N)cc1OC,-14,1.83
